{
  "source": "PubChem BioAssay AID360",
  "about": "(National Center for Advancing Translational Sciences (NCATS), 2006)",
  "note": "Hit rate of the full screen: of about 48,000 compounds, about 550 (1.1%) were called active. Not shown: some 4% with an inconclusive outcome. Cut-off read from the data, not from the text of the source: active = potency below about 15 µM; inconclusive = mostly about 16 µM to 33 µM; inactive = weaker than that. The list shows a part of the results. Potency is the fitted concentration of half-maximal effect.",
  "data": [
    {"target": "Lysosomal acid glucosylceramidase (Homo sapiens) (UniProt P04062)", "sequence (P04062 whole entry, looked up)": "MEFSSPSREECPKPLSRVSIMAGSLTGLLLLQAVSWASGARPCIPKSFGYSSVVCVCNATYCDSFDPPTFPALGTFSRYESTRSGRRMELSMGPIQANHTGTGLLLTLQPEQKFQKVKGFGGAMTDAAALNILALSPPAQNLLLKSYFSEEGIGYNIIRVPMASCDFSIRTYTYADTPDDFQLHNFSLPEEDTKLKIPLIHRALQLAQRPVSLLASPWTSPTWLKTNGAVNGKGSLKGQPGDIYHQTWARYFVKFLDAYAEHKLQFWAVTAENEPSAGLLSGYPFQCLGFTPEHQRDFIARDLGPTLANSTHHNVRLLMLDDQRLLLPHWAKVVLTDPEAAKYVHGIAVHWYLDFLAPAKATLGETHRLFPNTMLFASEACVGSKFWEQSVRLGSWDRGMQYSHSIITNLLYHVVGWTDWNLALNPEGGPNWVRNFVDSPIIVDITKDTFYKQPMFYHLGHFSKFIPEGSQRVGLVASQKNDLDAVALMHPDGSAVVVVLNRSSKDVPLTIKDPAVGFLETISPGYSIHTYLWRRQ", "assay": "Glucocerebrosidase;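 note: the screen sought inhibitors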", "conditions": "purified enzyme, resorufin glucoside fluorescence (screen aimed at inhibitors), 20 min", "how_it_was_run": "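Normal human glucocerebrosidase (0.2 nM final) was assayed with resorufin β-D-glucopyranoside (30 uM final) in 50mM citric acid/KH2PO4, 10mM sodium taurocholate, 0.01% tween-20, pH 5.9. Compounds were titrated; fluorescence (Ex 548, Em 600) read after 20 min at RT.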", "values": [
      {"smiles": "Cc1ccc(C)c(NC(=O)c2ccccn2)c1", "Potency": "inactive: > 76.9 µM"},
      {"smiles": "COC(=O)c1ccccc1OC(=O)c1ccc(Br)o1", "Potency": "inactive: > 76.9 µM"},
      {"smiles": "COc1cc(OC)c(OC)cc1CN(C)CCc1ccccn1", "Potency": "active: 15.1 µM"},
      {"smiles": "CCn1c(C)nc2cc(C(=O)OCCC(F)(F)F)ccc21", "Potency": "active: 10.7 µM"},
      {"smiles": "CCOc1cccc(/C(O)=C2/C(=O)C(=O)N(CCOC)C2c2ccco2)c1", "note": "(stereo unspecified)", "Potency": "inactive: > 76.9 µM"},
      {"smiles": "CC(C)CCNC(=O)NC(=O)CSc1nnc(-c2ccccc2F)n1N", "Potency": "inactive: > 76.9 µM"},
      {"smiles": "Cc1c(C)c2cc(Cl)c(O)c(CN(C)C)c2oc1=O", "Potency": "inactive: > 76.9 µM"},
      {"smiles": "COc1ccc2c(c1)c(C(=O)OCCN(C)C)c(C)n2C", "Potency": "inactive: > 76.9 µM"},
      {"smiles": "COC(=O)c1cn(NC(=O)C2CCCO2)c(=O)c2ccccc12", "note": "(stereo unspecified)", "Potency": "inactive: > 76.9 µM"},
      {"smiles": "CC(C)C(=O)Nc1cccc(C(=O)NCc2ccc3c(c2)OCO3)c1", "Potency": "inactive: > 76.9 µM"},
      {"smiles": "COc1ccc(CCNC(=O)COC(=O)c2cnc(C)cn2)cc1OC", "Potency": "inactive: > 76.9 µM"},
      {"smiles": "Cc1sc2ncnc(SCc3ccco3)c2c1C", "Potency": "inactive: > 76.9 µM"},
      {"smiles": "CC1CC(C)CN(CCCNC(=O)c2ccc(CS(=O)(=O)Cc3ccccc3F)o2)C1", "note": "(stereo unspecified)", "Potency": "inactive: > 76.9 µM"},
      {"smiles": "Cc1cc(C)cc(OCc2nnc(SCC(=O)c3ccccc3)o2)c1", "Potency": "inactive: > 76.9 µM"},
      {"smiles": "CCOC(=O)c1sc2ncn(C(CC)C(=O)OCC)c(=O)c2c1C", "note": "(stereo unspecified)", "Potency": "inactive: > 76.9 µM"},
      {"smiles": "Cc1nn(-c2ccccc2)c2[nH]c(=O)c(CNCCN3CCOCC3)cc12", "Potency": "inactive: > 76.9 µM"},
      {"smiles": "CCOC(=O)C1CCCN(C(=O)c2ccccc2SCCOC)C1", "note": "(stereo unspecified)", "Potency": "inactive: > 76.9 µM"},
      {"smiles": "CCS(=O)(=O)N1CCC(C(=O)NCCCN2CCC(Cc3ccccc3)CC2)CC1", "Potency": "inactive: > 76.9 µM"},
      {"smiles": "COc1cccc(C(C(=O)NCc2ccco2)N(C(=O)Cn2nnc3ccccc32)C2CC2)c1OC", "note": "(stereo unspecified)", "Potency": "inactive: > 76.9 µM"},
      {"smiles": "Cc1ccc(-c2cnc(NC(=O)CCC(=O)N3CCCCC3)n2C)cc1", "Potency": "inactive: > 76.9 µM"},
      {"smiles": "CC(C)N(CCCNC(=O)C1CCN(S(=O)(=O)N2CCOCC2)CC1)Cc1ccccc1", "Potency": "inactive: > 76.9 µM"},
      {"smiles": "Cc1ccc2cc3c(nc2c1)N(Cc1ccco1)CC3", "Potency": "inactive: > 76.9 µM"},
      {"smiles": "CSC1=NC(NCCCO)c2c(sc3c2CC(C)(C)OC3)N1", "note": "(stereo unspecified)", "Potency": "inactive: > 76.9 µM"},
      {"smiles": "CCc1nc(C)cc(N)c1OCc1ccccc1", "Potency": "inactive: > 76.9 µM"},
      {"smiles": "CCOC(=O)N1CCN(C(=O)Cn2nc(C)c3sc4ccccc4c3c2=O)CC1", "Potency": "inactive: > 76.9 µM"},
      {"smiles": "CN(C)C(=O)CSc1nnc(CCCCCNC(=O)OC(C)(C)C)o1", "Potency": "inactive: > 76.9 µM"},
      {"smiles": "Cc1ccc(-c2csc3ncn(/N=C/N(C)C)c(=O)c23)o1", "Potency": "inactive: > 76.9 µM"},
      {"smiles": "COc1ccc(-c2nn3c(-c4ccncc4)nnc3s2)cc1OC", "Potency": "inactive: > 76.9 µM"},
      {"smiles": "CCCCCCOc1cccc(N)c1", "Potency": "inactive: > 76.9 µM"},
      {"smiles": "CCCCOc1ccc(-c2nnn(CCC(=O)N3CCOCC3)n2)cc1", "Potency": "inactive: > 76.9 µM"},
      {"smiles": "CNC(=O)OCc1cccc(COC(=O)NC)n1", "Potency": "inactive: > 76.9 µM"},
      {"smiles": "O=C(NCCc1ccc(Cl)cc1)C1CCC(=O)N1C1CCCC1", "note": "(stereo unspecified)", "Potency": "inactive: > 76.9 µM"},
      {"smiles": "CCn1c(=O)c2c3c(sc2n(C)c1=O)CCC3", "Potency": "inactive: > 76.9 µM"},
      {"smiles": "CC(C)(O)C#Cc1ccc(C(=O)NCc2cccs2)s1", "Potency": "inactive: > 15.4 µM"},
      {"smiles": "Cc1oc2c(CN(C)C)c(O)ccc2c(=O)c1-c1ccc2ccccc2n1", "Potency": "inactive: > 76.9 µM"},
      {"smiles": "COC(=O)c1cc2oc3ccccc3c2n1Cc1ccccn1", "Potency": "inactive: > 76.9 µM"},
      {"smiles": "COC(=O)c1sccc1NC(=O)C1CC2CCC1C2", "note": "(stereo unspecified)", "Potency": "inactive: > 76.9 µM"},
      {"smiles": "COc1ccc(-c2nnc(SCc3nnc(-c4ccccc4)o3)n2C)cc1OC", "Potency": "inactive: > 76.9 µM"},
      {"smiles": "CC(=O)NC(CCS(C)(=O)=O)C(=O)Nc1nccs1", "note": "(stereo unspecified)", "Potency": "inactive: > 76.9 µM"},
      {"smiles": "O=C(NCc1cccs1)c1nn2cccnc2c1Cl", "Potency": "inactive: > 76.9 µM"},
      {"smiles": "CNC(=O)/C(=N\\O)c1ccccc1", "Potency": "inactive: > 76.9 µM"},
      {"smiles": "CCOC(=O)C1CCN(C(=O)c2ccc(Cl)c(Cl)c2)CC1", "Potency": "inactive: > 76.9 µM"},
      {"smiles": "CCCn1c(CNc2ccccc2O)nc2ccccc21", "Potency": "inactive: > 76.9 µM"},
      {"smiles": "CC1CCN(CCCNC(=O)c2n[nH]c(=O)c3ccccc23)CC1", "Potency": "inactive: > 76.9 µM"},
      {"smiles": "Cn1c(=O)n(Cc2ccccc2)c(=O)c2c1nc1n2CCS1", "Potency": "inactive: > 76.9 µM"},
      {"smiles": "Cc1cc(N2CCC(C(=O)NC3CCCCC3)CC2)nc(-c2ccccc2)n1", "Potency": "inactive"},
      {"smiles": "CCOc1ccc(NC(=O)Nc2ccc3c(c2)nnn3C)cc1", "Potency": "inactive: > 76.9 µM"},
      {"smiles": "CCn1c(SCC(=O)c2cc(OC)ccc2OC)nnc1C1CC1", "Potency": "inactive: > 76.9 µM"},
      {"smiles": "c1ccc(CCc2nn3c(Cn4nnc5ccccc54)nnc3s2)cc1", "Potency": "inactive: > 76.9 µM"},
      {"smiles": "CCOC(=O)CSc1nc2c(c(=O)n(C)c(=O)n2C)n1CCCc1ccccc1", "Potency": "inactive: > 76.9 µM"},
      {"smiles": "Cn1c(=O)cc(OCC(=O)N2CCCc3ccccc32)c2ccccc21", "Potency": "inactive: > 76.9 µM"},
      {"smiles": "CCOC(=O)C(C(C)=O)c1nc(C)nc2c1nnn2Cc1ccccc1Cl", "note": "(stereo unspecified)", "Potency": "inactive: > 76.9 µM"},
      {"smiles": "CCOc1ccc(CCNC(=O)C2CCCN(c3nn4c(=O)cc(C)nc4s3)C2)cc1OCC", "note": "(stereo unspecified)", "Potency": "inactive: > 76.9 µM"},
      {"smiles": "O=C(Nc1ccccn1)[C@@H]1CCC(=O)N1C(=O)OCc1ccccc1", "Potency": "inactive: > 76.9 µM"},
      {"smiles": "CCOC(=O)N1CCN(C(=O)Cc2ccc(-n3c(=O)[nH]c4ccccc4c3=O)cc2)CC1", "Potency": "inactive: > 76.9 µM"},
      {"smiles": "O=C(Nc1cccnc1)c1cccs1", "Potency": "inactive: > 76.9 µM"},
      {"smiles": "Cc1ccc(S(=O)(=O)NC(C)C(=O)Nc2ccc(C(N)=O)cc2)cc1", "note": "(stereo unspecified)", "Potency": "inactive: > 76.9 µM"},
      {"smiles": "O=c1c2ccccc2c(/C=N/c2ncn[nH]2)c(O)n1Cc1ccccc1", "Potency": "inactive: > 76.9 µM"},
      {"smiles": "COc1ccc(OC(C)C(=O)N2CCN(c3ccccn3)CC2)cc1", "note": "(stereo unspecified)", "Potency": "inactive"},
      {"smiles": "COc1cc(Cl)c(C)cc1NC(=O)CSc1nc2ccccc2o1", "Potency": "inactive"},
      {"smiles": "CCn1cc(C(=O)NCc2ccco2)c(=O)c2cc(S(=O)(=O)N3CCC(C)CC3)ccc21", "Potency": "inactive: > 76.9 µM"}
    ]}
  ]
}
